The supplement of paper PMC10126150
Values marked as one replicate rest on one cluster of the flow cell; about a third of the high ones do not repeat.

The sequences below were run on ATP (assay: switch fluorescence ratio, 500 uM ATP over buffer (Cy3 cluster intensity, sum of 5 cycles each) (fold (ratio)); higher = stronger signal-on switching upon ATP binding; sequences stand for … in TCGTCGGCAGCGTCAGATGTGTATAAGAGACAGTTTTTTTTTTTTTTTTTTTTTTTTT…TC). Settings: aptamer strand: ATP DNA aptamer (quencher-CACCTGGGGGAGTATTGCGGAGGAAGG + anchor), 100 nM annealed; ATP concentration: 500 uM; one replicate.
Outline: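 Cy3-labelled switching-strand clusters on a modified Illumina MiSeq flow-cell were annealed to 100 nM quencher-labelled ATP aptamer, imaged in selection buffer, then imaged after 15 min with 500 uM ATP at 22 °C. Five buffer/ATP cycles ran, with NaOH stripping and re-annealing between them. The fluorescence ratio is summed target-cycle over summed buffer-cycle Cy3 intensity per cluster, averaged per switch-domain sequence. Clusters outside 100-1000 RFU were excluded.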
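Also: ATP exposure 15 min at 22 °C before imaging.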

| Sequence | switch fluorescence ratio |
| --- | --- |
| TTAAAACTT | 1.01 |
| TTAAAAGCG | 1.04 |
| TTAAACATTG | 1 |
| TTAAACTTGG | 1 |
| TTAAAGAGCA | 0.974 |
| TTAAAGCAAG | 1.02 |
| TTAAAGGTCT | 1.01 |
| TTAAATAAAC | 1.01 |
| TTAAATGCTT | 0.997 |
| TTAAATGTTC | 0.995 |
| TTAACCAGGA | 0.999 |
| TTAACTCTCA | 0.939 |
| TTAACTGTAT | 1.08 |
| TTAACTTAAA | 0.974 |
| TTAAGAACAT | 0.964 |
| TTAAGAACCC | 0.989 |
| TTAAGAACTG | 0.976 |
| TTAAGAATCA | 0.998 |
| TTAAGAGCTT | 1.01 |
| TTAAGATCGC | 0.982 |
| TTAAGCC | 1.09 |
| TTAAGCTTTG | 0.95 |
| TTAAGGTGCC | 1.03 |
| TTAAGTACCG | 1.09 |
| TTAAGTGTAT | 0.994 |
| TTAATAAAGA | 0.998 |

| Sequence | switch fluorescence ratio |
| --- | --- |
| TTAATAATTG | 1.01 |
| TTAATACGTG | 1.06 |
| TTAATACTAG | 1.17 |
| TTAATACTGG | 1.01 |
| TTAATATCAC | 1.02 |
| TTAATATTGA | 1 |
| TTAATCATCC | 1.05 |
| TTAATCGTCC | 1.07 |
| TTAATCTACC | 1.14 |
| TTAATTCTTT | 1.03 |
| TTACACCT | 1.39 |
| TTACACGGCG | 1.07 |
| TTACACTACT | 1.29 |
| TTACACTGAT | 1.04 |
| TTACACTGCG | 1.05 |
| TTACACTTCA | 1.05 |
| TTACAGAAGT | 1.03 |
| TTACAGGCG | 1.03 |
| TTACAGGCGG | 0.991 |
| TTACAGGTTT | 1.02 |
| TTACAGTCTA | 1.01 |
| TTACATGAGA | 0.991 |
| TTACATGGAC | 1.05 |
| TTACATTGGA | 1.01 |
| TTACCACAAC | 1.08 |
| TTACCCAGGA | 1.41 |

| Sequence | switch fluorescence ratio |
| --- | --- |
| TTACCCGCGT | 1.24 |
| TTACCGTCGG | 1.03 |
| TTACCTGGGA | 1.01 |
| TTACGACAGG | 1.06 |
| TTACGACCTC | 1.17 |
| TTACGAGACA | 1.16 |
| TTACGCAAAA | 1.17 |
| TTACGCCTTG | 0.955 |
| TTACGGGATT | 1.01 |
| TTACGGGGA | 1.02 |
| TTACGTAAAC | 1.56 |
| TTACGTCTAA | 1.09 |
| TTACGTTGCC | 0.967 |
| TTACTGACGA | 1.47 |
| TTACTGCGTG | 1.01 |
| TTACTGCTCT | 1.01 |
| TTACTGGCCA | 1.03 |
| TTACTGTGTA | 0.967 |
| TTACTTCCTG | 1.02 |
| TTACTTGCG | 1.01 |
| TTAGAAACTC | 1.03 |
| TTAGAACAAA | 1 |
| TTAGAATGGA | 1.02 |
| TTAGAATTA | 1.03 |
| TTAGACAGCT | 1.03 |
| TTAGACTAGT | 0.971 |

| Sequence | switch fluorescence ratio |
| --- | --- |
| TTAGAGAGCA | 1 |
| TTAGAGCATA | 1.94 |
| TTAGAGCTTG | 1.01 |
| TTAGAGTAAT | 1.28 |
| TTAGATCGCG | 1.02 |
| TTAGCAGGCG | 0.984 |
| TTAGCCCGAG | 0.982 |
| TTAGCCGAGG | 0.941 |
| TTAGCCTGGA | 0.98 |
| TTAGCGATG | 0.972 |
| TTAGCTCGAG | 1.04 |
| TTAGGAAAAC | 1 |
| TTAGGACTTC | 1.01 |
| TTAGGAGACC | 0.98 |
| TTAGGAGGC | 1.03 |
| TTAGGAGTAA | 0.935 |
| TTAGGATGGG | 0.98 |
| TTAGGCATTT | 1.07 |
| TTAGGCCATG | 1.06 |
| TTAGGCCTGG | 0.983 |
| TTAGGCTATT | 0.951 |
| TTAGGGGTAG | 0.998 |
| TTAGGTGACA | 1.02 |
| TTAGGTTGTG | 0.989 |
| TTAGTACTAG | 0.965 |
| TTAGTAGGAA | 1.02 |

| Sequence | switch fluorescence ratio |
| --- | --- |
| TTAGTATTTC | 0.973 |
| TTAGTCAGAT | 1.02 |
| TTAGTCGATC | 1.05 |
| TTAGTGGGTC | 0.996 |
| TTAGTGGTGG | 1.01 |
| TTAGTGTGC | 0.982 |
| TTAGTTATAA | 1.05 |
| TTAGTTGCTA | 1.02 |
| TTAGTTGTTA | 0.996 |
| TTAGTTTAGA | 1.01 |
| TTATAACGC | 1.02 |
| TTATAACGG | 1.06 |
| TTATACGGTC | 0.989 |
| TTATACTCTG | 1 |
| TTATAGACGC | 1.06 |
| TTATAGCCAA | 2.44 |
| TTATAGTTGT | 0.988 |
| TTATATACGA | 1.05 |
| TTATATGATA | 1.02 |
| TTATATTGAG | 0.995 |
| TTATCAAAGA | 1.04 |
| TTATCAAATG | 0.976 |
| TTATCACAG | 1.02 |
| TTATCAGACG | 1.03 |
| TTATCCAACC | 0.967 |
| TTATCCAGGG | 1.21 |

| Sequence | switch fluorescence ratio |
| --- | --- |
| TTATCCGA | 1.1 |
| TTATCGGGGA | 1.03 |
| TTATCTGGT | 1.11 |
| TTATGAGTCC | 1.05 |
| TTATGATAT | 1.03 |
| TTATGCAATC | 2.88 |
| TTATGCGGCC | 1.05 |
| TTATGCTTTG | 1.03 |
| TTATGGATTA | 0.986 |
| TTATGGTCAA | 0.966 |
| TTATGGTTGC | 0.973 |
| TTATGTGCTC | 1.04 |
| TTATGTGGCA | 0.988 |
| TTATTAAATT | 0.995 |
| TTATTAGACA | 1.04 |
| TTATTAGCGG | 0.987 |
| TTATTCCGTT | 0.976 |
| TTATTGAGA | 0.996 |
| TTATTGCCCG | 1.09 |
| TTATTGCGGC | 1.09 |
| TTATTGGGCG | 0.958 |
| TTATTGGTCT | 1.01 |
| TTATTTCGC | 0.994 |
| TTATTTCT | 1.01 |
| TTCAAAAGGC | 1 |
| TTCAAACCCC | 1.17 |

| Sequence | switch fluorescence ratio |
| --- | --- |
| TTCAAAGTGT | 1.09 |
| TTCAACGACC | 1.14 |
| TTCAATCCGG | 1.09 |
| TTCAATGGAG | 0.977 |
| TTCAATGGTC | 1.13 |
| TTCAATTCT | 1.06 |
| TTCACGCGTA | 1.02 |
| TTCACGGTGA | 0.968 |
| TTCACTGCCG | 0.933 |
| TTCACTTGAT | 0.992 |
| TTCAGAAGGC | 1.03 |
| TTCAGACAGC | 1.02 |
| TTCAGACGGC | 1 |
| TTCAGAGAGC | 0.999 |
| TTCAGATCGC | 1.09 |
| TTCAGGACCT | 1.01 |
| TTCAGTGGG | 0.993 |
| TTCAGTTTAC | 1.01 |
| TTCATAGCTC | 1.02 |
| TTCATCCCCT | 1.05 |
| TTCATCTATG | 0.987 |
| TTCATCTTGG | 0.999 |
| TTCATGATAG | 1.01 |
| TTCCAAAGGG | 0.968 |
| TTCCAACGGC | 1.06 |
| TTCCAATGTA | 1.03 |

| Sequence | switch fluorescence ratio |
| --- | --- |
| TTCCACCTCT | 1.02 |
| TTCCACGGTT | 1.01 |
| TTCCAGCAAG | 1.76 |
| TTCCAGCATA | 1.38 |
| TTCCAGTACT | 1.09 |
| TTCCCATAGG | 1.14 |
| TTCCCATCGT | 0.969 |
| TTCCCCGCGT | 4.65 |
| TTCCCCTCGC | 1.1 |
| TTCCCGACCT | 1.24 |
| TTCCCGAGAT | 1.5 |
| TTCCCGCCTG | 1.06 |
| TTCCCGGTGA | 1.41 |
| TTCCCGTTAG | 1.38 |
| TTCCCTAACG | 0.997 |
| TTCCCTCGGG | 1.12 |
| TTCCCTCTAC | 1.13 |
| TTCCCTTAA | 0.998 |
| TTCCCTTAAG | 1.01 |
